Test results taken from PubChem BioAssay AID2147 (National Center for Advancing Translational Sciences (NCATS), 2009).
Screen size: about 230,000 compounds; about 3,600 (1.6%) were called active. Inconclusive means that the source gave no clear call. Such entries were picked first, then a sample of the others. Calls come from the whole dose curve; as a rule, active = well fitted inhibition curve with a large enough effect (not every such curve was filed as active); inconclusive = small, poorly fitted or top-dose-only effect, or another doubt; inactive = no such curve, though single readings can be large or run the other way. Potencies of inconclusive entries are doubtful fits and often do not repeat.
Note: nearly all actives have a fitted effect of over 50% in size.
Potency is the fitted concentration of half-maximal effect; tags give direction and shape of the fitted curve.

What follows are compounds tested against Lysine-specific demethylase 4E (Homo sapiens) (UniProt B2RXH2) (assay: qHTS Assay for Inhibitors of Human Jumonji Domain Containing 2E (JMJD2E)). Settings: JMJD2E catalytic domain, FDH-coupled NADH fluorescence (FDH is formaldehyde dehydrogenase); series mostly up to 57.1 µM.
Sequence of UniProt B2RXH2 (B2RXH2 whole entry, looked up, the tested form may be a part): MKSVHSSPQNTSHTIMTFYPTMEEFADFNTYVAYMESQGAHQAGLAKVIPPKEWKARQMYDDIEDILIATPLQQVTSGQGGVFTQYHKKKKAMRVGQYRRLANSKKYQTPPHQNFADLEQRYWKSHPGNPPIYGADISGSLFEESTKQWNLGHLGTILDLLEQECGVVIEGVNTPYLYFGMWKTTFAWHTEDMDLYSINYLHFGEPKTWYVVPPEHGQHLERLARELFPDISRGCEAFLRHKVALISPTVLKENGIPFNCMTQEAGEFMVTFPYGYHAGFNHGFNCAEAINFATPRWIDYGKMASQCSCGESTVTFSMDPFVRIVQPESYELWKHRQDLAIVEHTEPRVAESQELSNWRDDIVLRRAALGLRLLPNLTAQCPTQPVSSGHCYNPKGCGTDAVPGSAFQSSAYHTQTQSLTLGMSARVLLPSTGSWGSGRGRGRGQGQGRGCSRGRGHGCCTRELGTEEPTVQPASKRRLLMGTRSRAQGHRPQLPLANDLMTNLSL
Cc1ccc(C(=O)c2cncc(Br)c2)cc1 was tested, and the Potency was “inactive”.
In the case of COc1ccc(C2CC(=O)c3c(O)cc(OC4OC(COC5OC(C)C(O)C(O)C5O)C(O)C(O)C4O)cc3O2)cc1O (centres undefined), the Potency is reported as “inactive”.
In the case of Cc1c(NC(=O)C(=O)N/N=C/c2cccs2)c(=O)n(-c2ccccc2)n1C, the Potency is reported as inconclusive: 35.5 µM [inhibitor, partial curve, poor fit].
CCN(Cc1ccncc1)C(=O)CC1C(=O)NCCN1Cc1ccc(F)c(F)c1 (centres undefined) was tested, and the Potency was inconclusive: 12.6 µM [inhibitor, partial curve].
In the case of Clc1ccccc1CN1CCN(/N=C/C=C/c2ccco2)CC1, the Potency is reported as inconclusive: 39.8 µM [inhibitor, single point].
For CCNc1ccccc(C(=O)/C=C/c2ccc3c(c2)OCO3)c1=O, the Potency was active: 20 µM.
For Cc1cc(C)c2cc(C(c3nnnn3C3CCCC3)N3CCOCC3)c(=O)[nH]c2c1 (centres undefined), the Potency was inconclusive: 28.2 µM [inhibitor, partial curve].
In the case of O=C(c1ccc2nc[nH]c2c1)N1CCc2ccccc2C1, the Potency is reported as inconclusive: 0.794 µM [inhibitor, partial curve].
With O=C(Cc1ccc(Cl)cc1Cl)OCC(=O)N1CCN(C(=O)c2ccco2)CC1 the Potency was “inactive”.
FC(F)(F)c1ccc2c(c1)C1C=CCC1C(c1ccncc1)N2 (centres undefined) was tested, and the Potency was inconclusive: 25.1 µM [inhibitor, single point].
Cc1c(N=Cc2ccc(-c3ccc(Cl)cc3)o2)c(=O)n(-c2ccccc2)n1C was tested, and the Potency was “inactive”.
With Cc1cc(/C=C2/NC(=O)N(Cc3ccccc3F)C2=O)c(C)n1C(C)C the Potency was active: 17.8 µM.
With COCCn1c(C)cc(C2=NNC(=Nc3ccccc3F)SC2)c1C the Potency was active: 25.1 µM.
With CC(=O)N1N=C(c2ccc(C(C)(C)C)cc2)OC1(C)C the Potency was inconclusive: 39.8 µM [inhibitor, single point].
CC1C(=NO)C(C)C(c2ccc(N(C)C)cc2)NC1c1ccc(N(C)C)cc1 (centres undefined) was tested, and the Potency was inconclusive: 39.8 µM [inhibitor, single point].
In the case of COc1ccc2nnc(-c3ccccc3)n2n1, the Potency is reported as inconclusive: 31.6 µM [inhibitor, single point].
With Cc1nnc(SCCN2CCOCC2)n1C the Potency was inconclusive: 31.6 µM [inhibitor, single point].
With CC(C)Cc1nc(NCCN2CCOCC2)c(C#N)c2c1COC(C)(C)C2 the Potency was inconclusive: 25.1 µM [inhibitor, partial curve].
Cc1c(C(=O)OCC(=O)N2c3ccccc3CC2C)oc2ccccc12 (centres undefined) was tested, and the Potency was inconclusive: 35.5 µM [inhibitor, single point].
In the case of COc1ccc(-c2ccc(S(=O)(=O)N3CCOCC3)cc2)cc1, the Potency is reported as inconclusive: 31.6 µM [inhibitor, partial curve].
CNc1nc(Nc2ccc(C(C)=O)cc2)nc(OC(C(F)(F)F)C(F)(F)F)n1 was tested, and the Potency was inconclusive: 35.5 µM [inhibitor, single point].
With COc1ccc(OC)c(/C=N/NC(=O)CNC(=O)c2ccc(S(=O)(=O)N3CCCC3)cc2)c1 the Potency was inconclusive: 31.6 µM [inhibitor, partial curve].
With Cc1ccc2c(c1)c1ncnc(N3CCc4ccccc4C3)c1n2C the Potency was inconclusive: 28.2 µM [inhibitor, partial curve].
In the case of COC(=O)C1(C)C=C2C(=C(c3ccccc3)C(=O)C2C)CN1 (centres undefined), the Potency is reported as “inactive”.
In the case of Cc1c(NCc2ccccc2O)c(=O)n(-c2ccccc2)n1C, the Potency is reported as inconclusive: 39.8 µM [inhibitor, single point].
In the case of COc1ccc(-c2nn(-c3ccccc3)cc2/C=N/NC(N)=S)cc1OC, the Potency is reported as inconclusive: 39.8 µM [inhibitor, single point].
For OC(COCc1cccs1)CN1CCN(c2cccc(Cl)c2)CC1 (centres undefined), the Potency was inconclusive: 25.1 µM [inhibitor, single point].
CCN(CC)c1ccc(NC(=O)CSc2nnc(N)s2)cc1C was tested, and the Potency was “inactive”.
In the case of Fc1ccccc1C1c2cccn2CCN1C(=S)Nc1ccc(Br)cc1 (centres undefined), the Potency is reported as inconclusive: 22.4 µM [inhibitor, single point].
For CCCOc1ccccc1-c1nc2n[nH]nc2c(=O)[nH]1, the Potency was “inactive”.
S=c1[nH]c2ccccc2o1 was tested, and the Potency was inconclusive: 35.5 µM [inhibitor, single point].
With COc1cc(C(=O)NCCCNc2nc3c(C)cc(C)cc3cc2C#N)cc(OC)c1OC the Potency was inconclusive: 31.6 µM [inhibitor, partial curve].
COCCn1c(N)c(C(=S)NC(=O)c2cccs2)c(=O)[nH]c1=O was tested, and the Potency was inconclusive: 39.8 µM [inhibitor, single point].
For COc1ccc(C2=NN(C(=O)CSc3ncccn3)C(c3ccc(OC)cc3)C2)cc1 (centres undefined), the Potency was inconclusive: 35.5 µM [inhibitor, partial curve].
In the case of COc1cc(-c2cc(-c3ccccc3)nc(SCC(=O)Nc3nccs3)c2C#N)cc(OC)c1OC, the Potency is reported as inconclusive: 35.5 µM [inhibitor, partial curve].
In the case of Cc1ccc2cc(CCNS(=O)(=O)c3ccc(F)cc3)c(=O)[nH]c2c1, the Potency is reported as inconclusive: 39.8 µM [inhibitor, single point].
With Clc1cccc(Nc2ncnc3c2cnn3-c2ccccc2)c1 the Potency was inconclusive: 35.5 µM [inhibitor, partial curve].
For CC1CCC2(CC1)NC(=S)N(c1ccccc1)N2 (centres undefined), the Potency was inconclusive: 31.6 µM [inhibitor, single point].
CNc1cc(C(F)(F)F)nc(-c2ccccn2)n1 was tested, and the Potency was inconclusive: 25.1 µM [inhibitor, single point].
For O=C(CSc1nnc(-c2ccco2)o1)NC(=O)C1COc2ccccc2O1 (centres undefined), the Potency was inconclusive: 39.8 µM [inhibitor, single point].
For c1cncc(-c2ccc3ncnc(N4CCNCC4)c3c2)c1, the Potency was inconclusive: 39.8 µM [inhibitor, single point].
O=C1C2C(C(=O)N1/N=C/c1cc([N+](=O)[O-])ccc1O)C1C=CC2C12CC2 (centres undefined) was tested, and the Potency was “inactive”.
With CCN(CC)CCN1C(=O)c2ccccc2NC1c1ccc(C)cc1 (centres undefined) the Potency was inconclusive: 28.2 µM [inhibitor, partial curve].
In the case of CCOC(=O)c1cnc2c(C#N)c(C)nn2c1-c1ccccc1, the Potency is reported as inconclusive: 35.5 µM [inhibitor, single point].
